# From the supplement of paper PMC11876631
# ± gives the standard deviation of the averaged measurements. Laboratory Escherichia coli strains with one amino-acid change in an essential protein, pooled on minimal glucose agar with carbenicillin or gentamicin at twice the control MIC (plus kanamycin and chloramphenicol for the plasmids), 48 h. Fold change of barcode share against drug-free plates; higher = less susceptible. Active = above 20 in both replicates (the paper's putatively resistant). '<' = one read or none on drug, '>' = one read or none on a drug-free plate. Shares are relative, so most strains fall below 1 when a few take over. Listed are strains with at least 15 reads on both drug-free plates, and hits; most hits rest on fewer reference reads. Replicate rank correlation about 0.5. Edits are read from barcodes.
# B1: pyrC; numbered along this chain (parent)
# chain: MTAPSQVLKIRRPDDWHLHLRDGDMLKTVVPYTSEIYGRAIVMPNLAPPVTTVEAAVAYRQRILDAVPAGHDFTPLMTCYLTDSLDPNELERGFNEGVFTAAKLYPANATTNSSHGVTSIDAIMPVLERMEKIGMPLLVHGEVTHADIDIFDREARFIESVMEPLRQRLTALKVVFEHITTKDAADYVRDGNERLAATITPQHLMFNRNHMLVGGVRPHLYCLPILKRNIHQQALRELVASGFNRVFLGTDSAPHARHRKESSCGCAGCFNAPTALGSYATVFEEMNALQHFEAFCSVNGPQFYGLPVNDTFIELVREEQQVAESIALTDDTLVPFLAGETVRWSVKQ
# B2: cysN; numbered along this chain (parent)
# chain: MNTALAQQIANEGGVEAWMIAQQHKSLLRFLTCGSVDDGKSTLIGRLLHDTRQIYEDQLSSLHNDSKRHGTQGEKLDLALLVDGLQAEREQGITIDVAYRYFSTEKRKFIIADTPGHEQYTRNMATGASTCELAILLIDARKGVLDQTRRHSFISTLLGIKHLVVAINKMDLVDYSEETFTRIREDYLTFAGQLPGNLDIRFVPLSALEGDNVASQSESMPWYSGPTLLEVLETVEIQRVVDAQPMRFPVQYVNRPNLDFRGYAGTLASGRVEVGQRVKVLPSGVESNVARIVTFDGDREEAFAGEAITLVLTDEIDISRGDLLLAADEALPAVQSASVDVVWMAEQPLSPGQSYDIKIAGKKTRARVDGIRYQVDINNLTQREVENLPLNGIGLVDLTFDEPLVLDRYQQNPVTGGLIFIDRLSNVTVGAGMVHEPVSQATAAPSEFSAFELELNALVRRHFPHWGARDLLGDK
# B3: lpxK; a variant is named by its letters at X, in order (parent)
# chain: MIEKIWSGESPLWRLXLPLSWXYGLVSGAIRLCYKLKLKRAWRAPVPVVVVGNLTAGGNGKTPVVVWLVEQLQQRGIRVGVVSRGYGGKAESYPLLLSADTTTAQAGDEPVLIYQRTDAPVAVSPVRSDAVKAILAQHPDVQIIVTDDGLQHYRLARDVEIVVIDGVRRFGNGWWXPAGPMRERAGRLKSXDAVIVNGGVPRSGEIPMHLLPGQAVNLRTGTRCDVAQLEHXVAXAGIGHPPRFFATLKMCGVQPEKCVPLADHQSLNHADVSALVSAGQTLVMTEKDAVKCRAFAEENWWYLPVDAQLSGDEPAKLLTQLTLLASGN
# Variants of: B1
# Assay: barcode share on antibiotic plates over drug-free plates; higher = less susceptible
# Details: with Escherichia coli (laboratory strain); antibiotic: carbenicillin; 2× MIC (3.1 µg/mL)
# Procedure: (§1)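 A pool of E. coli strains, each edited to carry one amino-acid change in an essential protein, was grown for 48 h on minimal glucose agar with or without antibiotic; strain barcodes were sequenced; mean of two replicates.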
row,Variant,fold change of barcode share
1,F247Q,0.688 ± 0.12
2,F247W,0.424 ± 0.035
3,F247P,> 41.6 [active]
4,F247A,0.458 ± 0.21
5,V175D,0.478 ± 0.11
6,F176Q,0.359 ± 0.016
7,L226D,> 54.6 [active]
8,L226A,1.28 ± 0.11
9,L226P,0.584 ± 0.12
10,L226Q,1.1 ± 0.44
11,L20P,0.484 ± 0.29
12,L20A,0.258 ± 0.095
13,M162P,2.2 ± 0.38
14,M162A,0.4918 ± 0.0013
15,M162D,0.7 ± 0.065
16,M130A,0.408 ± 0.14

# Same assay, conditions: with Escherichia coli (laboratory strain); antibiotic: gentamicin; 2× MIC (MIC 0.45 µg/mL)
row,Variant,fold change of barcode share
1,F247Q,0.00992 ± 0.0021
2,F247W,0.00784 ± 0.0043
3,F247A,0.00507 ± 0.00024
4,V175D,< 0.00922
5,F176D,< 0.0213
6,F176A,< 0.0115
7,F176Q,< 0.0121
8,F176W,< 0.0163
9,L226A,0.0201 ± 0.016
10,L226P,0.281 ± 0.39
11,L226Q,0.00958 ± 0.0071
12,L20P,0.0382 ± 0.034
13,L20A,0.0394 ± 0.037
14,M162A,< 0.00292
15,M162D,0.00647 ± 0.0029
16,L127A,< 0.00456
17,L127W,0.00982 ± 0.0034
18,L127Q,0.0272 ± 0.02
19,M130A,0.0139 ± 0.016

# Variants of: B2
# Assay: as above
# Details: with Escherichia coli (laboratory strain); antibiotic: carbenicillin; 2× MIC (3.1 µg/mL)
# Procedure: as §1
row,Variant,fold change of barcode share
1,M19W,0.913 ± 0.24
2,M19D,3.63 ± 0.72
3,M19Q,0.471 ± 0.044
4,M19A,0.712 ± 0.28
5,M19P,0.828 ± 0.27
6,V342Q,1.79 ± 0.18
7,V342A,0.789 ± 0.097
8,I154A,0.529 ± 0.38
9,I138Q,1.54 ± 0.62
10,I138A,0.684 ± 0.079
11,I138D,2.67 ± 0.3
12,M344D,22.7 [active]
13,M344W,0.982 ± 0.26
14,M344P,37.9 [active]
15,M344A,0.781 ± 0.14
16,M344Q,0.682 ± 0.089
17,L232A,0.593 ± 0.1
18,L232Q,1.47 ± 0.4
19,V293A,1.4 ± 0.19
20,V293D,9.6 ± 5.1
21,V293Q,1.17 ± 0.12

# Same assay, conditions: with Escherichia coli (laboratory strain); antibiotic: gentamicin; 2× MIC (MIC 0.45 µg/mL)
row,Variant,fold change of barcode share
1,I154A,< 0.0159
2,I138A,0.02731 ± 0.00021
3,M344A,0.0225 ± 0.018
4,M344Q,0.0256 ± 0.0051
5,L232A,0.0129 ± 0.0037
6,L232P,< 0.0173
7,L232Q,0.0854 ± 0.1
8,V293P,0.016 ± 0.011

# Variants of: B3
# Assay: as above
# Details: with Escherichia coli (laboratory strain); antibiotic: carbenicillin; 2× MIC (3.1 µg/mL)
# Procedure: as §1
row,Variant,fold change of barcode share
1,LLWVVM,0.37 ± 0.091
2,LALVVM,0.319 ± 0.006
3,LLLPVM,0.294 ± 0.092
4,LDLVVM,0.261 ± 0.16
5,LLLQVM,0.249 ± 0.067
6,LLQVVM,0.624 ± 0.11
7,LLLVAM,0.272 ± 0.046
8,LLLAVM,0.405 ± 0.044
9,LPLVVM,0.222 ± 0.08
10,LLLVVM I195W,0.34 ± 0.25
11,LLLVVM I195A,0.173 ± 0.046
12,LLLVVM I195P,0.437 ± 0.054
13,LWLVVM,0.205 ± 0.05
14,LLAVVM,1.27 ± 0.41
15,LLLWVM,0.276 ± 0.1
16,LQLVVM,0.192 ± 0.095
17,LLLVPM,0.404 ± 0.064
18,LLLVDM,0.341 ± 0.1
19,LLLVWM,0.313 ± 0.11
20,LLLVVA,0.185 ± 0.082
21,LLLVVW,0.29 ± 0.082

# Same assay, conditions: with Escherichia coli (laboratory strain); antibiotic: gentamicin; 2× MIC (MIC 0.45 µg/mL)
row,Variant,fold change of barcode share
1,LLWVVM,0.0045 ± 0.0034
2,LALVVM,0.00552 ± 0.00029
3,LLLPVM,0.00912 ± 0.0071
4,LDLVVM,< 0.0143
5,LLLQVM,0.00709 ± 0.0024
6,LLQVVM,0.00356 ± 0.00042
7,LLLVAM,0.00236 ± 0.0011
8,PLLVVM,0.015 ± 0.0033
9,ALLVVM,< 0.00975
10,LLLAVM,< 0.00519
11,LPLVVM,0.0105 ± 0.0086
12,LLLVVM I195W,0.0104 ± 0.0068
13,LLLVVM I195A,< 0.01
14,LLLVVM I195P,0.015 ± 0.0021
15,LWLVVM,< 0.00575
16,LLAVVM,< 0.00284
17,QLLVVM,0.0192 ± 0.013
18,LLLWVM,< 0.00662
19,LQLVVM,< 0.00782
20,LLLVPM,0.00659 ± 0.00097
21,LLLVDM,0.0205 ± 0.021
22,LLLVWM,0.0107 ± 0.011
23,LLLVVA,< 0.00923
24,LLLVVW,< 0.00511
